± gives the standard deviation of the averaged measurements. This is one part of the list.
System: PfAP2-G AP2 domain (GST-tagged)
Test: gcPBM binding intensity (ln(normalized median fluorescence intensity)); higher = stronger DNA binding
In short: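 Binding intensity values are the highest Masliner-normalised natural-log median intensity among replicate spots of either probe orientation. The binding step lasted 1 h in 1× PBS with 1% milk, 0.2 mg/ml BSA, 0.5% salmon testes DNA and 0.03% Triton X-100, using GST-tagged P. falciparum DNA-binding domains expressed in E. coli on an Agilent 4 × 180k array of primer-extended double-stranded 36-bp intergenic genomic probes plus negative controls. Alexa488 anti-GST antibody and a 488 nm scan detected bound protein.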

Sequence	gcPBM binding intensity (ln)
TTATACTATTTTTATACATGCATTTCTATATATTTT [TGCATGCA_site316]	10.11 ± 0.014
TTATAATCAATGAATACACACATATATTTCATTAAT [CACACA_site5909]	9.93
TAATAATAGAGACACACACACATAGACATATAAATA [CACACA_site6729]	10.12 ± 0.092
ATCTATGAAAAAGGTACATGCAATAAAGAAACATAT [TGCATGCA_site805]	11.1 ± 0.76
TTCAAAATAAAAAATTCACACACATATATATATATA [CACACA_site8653]	9.84 ± 0.28
TATATATATATTATATGTACACAAGGAAATATGCAT [XGTACX_site5637]	11.5 ± 0.75
TATGTATAATTATTTTGTACTTATTAAATTTTTTTT [XGTACX_site5413]	11 ± 0.72
AAATAAAAAAAAATAGCACACATAAATATATTATAT [CACACA_site8155]	9.925 ± 0.049
ATTTATTAAATTTATAGTACTCAAAGATTTTTATTT [XGTACX_site6661]	11.2 ± 0.72
AAATAAAACAATTAACGTACAAGCATATATATATAT [XGTACX_site8508]	11.3 ± 0.99
AAAAAAGCAATATGATGTACATTTACTTTGTGAAAG [XGTACX_site4450]	10.9 ± 0.52
TAAAAAAATAAAATTACACACATATATAAATATATA [CACACA_site2620]	9.53 ± 0.15
AAGGAAAACAATAGGTGTACCAAACGTCCTAGGAAC [XGTACX_site5732]	11.2 ± 0.58
TTTCTTCATTTTTTCACACATAAGAAAATATAATCA [CACACA_site4275]	10.1 ± 0.32
AATTTAAAAAAAATCACACACAGAAAAAAAAAAAAA [CACACA_site2322]	9.83 ± 0.28
ATATATGTTTTTATATGTACTTATAATGTGTGTATA [XGTACX_site5165]	11.4 ± 0.93
CTAGGTATGCTTTAAACATGCAAAAATACAAATTAC [TGCATGCA_site239]	10.1 ± 0.28
ATATATAAATATATTTGTACATATAATATGTATTAT [XGTACX_site8820]	10.7 ± 0.4
TTTTGTTATAATAAAGTGCATTTAGTCGGGTTACAA [GTGCAC_site9779]	10.3 ± 0.4
AAATATTATAAAAAGGTGCATTTTTATTATATGAGT	10.1 ± 0.11
TGAAGAGGAAACAAACAAAATGAATAATTAAAAAGG [CACACA_negctrl_site1601]	9.905 ± 0.092
TTCTGACCAATGCTATAAAATAATACAAAAGAAAAA [GTGCAC_negctrl_site3]	10.4 ± 0.54

Sequence	gcPBM binding intensity (ln)
TATATCCACATTTTTAGTACTTAAAAATAAATAAAC [XGTACX_site3826]	11.2 ± 0.74
GTATATATATATATATGCAAATGTATAAATCTACAT [CACACA_negctrl_site546]	9.89 ± 0.057
AAGAAAAAAATATATGTTTATTTACTTTAATAATTT [TGCATGCA_negctrl_site168]	9.59 ± 0.24
CTCAAAGGAATATTCACACATAAATTATAGACTACA [CACACA_site6050]	9.8 ± 0.13
TAATTATATTCACTTGCTATATAAATTATATATATT [CACACA_negctrl_site526]	9.805 ± 0.092
ATACACACTCAAAAAAGTACTTAACTACATGAATTG [XGTACX_site6366]	11.4 ± 0.64
TATATATAAATATGCTGTACGTTTTAATACGTTAAG [XGTACX_site2378]	11.4 ± 0.95
AAAAAAATAGTCTTCTTGCACTTTTTAATTTATTTT	10 ± 0.014
TTATAATAAAATGAATATATATAATTTAAAATATTT [CACACA_negctrl_site1651]	9.56 ± 0.16
GATAAATTAAAACACACACACATATATATATATATA [CACACA_site3962]	10.2 ± 0.69
ATATTTATGAAGTTCACACATATATATATATATATA [CACACA_site5954]	10.3 ± 0.56
ACAACAATATTTGAATGTACTCTATTTTCGTTGTTC [XGTACX_site593]	11.2 ± 0.7
AAAAAAAGTTATATTACACACTTTATTCGTTAACTT [CACACA_site3013]	9.895 ± 0.021
AAAATGGTTTATAAATGTACATATATTATATATAAC [XGTACX_site7959]	11.1 ± 0.64
AATGATAATATTTCCTTCTTTTTTACTTCTTTCTTT [CACACA_negctrl_site776]	9.72 ± 0.23
TATAAAAAATAATACACACACATGGCGACAAAATAA [CACACA_site2420]	10.4 ± 0.15
TTTACTTTCCCAAGTTGTACTGCTTCTAAGCTTTTT [XGTACX_site2708]	11.1 ± 0.69
CCTATCCAGACATATACACACATATCTATTTATATA [CACACA_site5001]	10.02 ± 0.014
CATATAAAATAATTCACACAAATATACAAATACCCA [CACACA_site5340]	10.2 ± 0.14
TTTTTCAGAAAAGAAACACACATATATATATTTATA [CACACA_site2372]	9.915 ± 0.007
AAAAAAAATTTCTTCTGTACGCATAAATTTTTATTA [XGTACX_site8721]	11.6 ± 1
TATTTAATTTTTAAATGTACATATAAAATAATATAT [XGTACX_site2422]	11.2 ± 0.89
